Reference: the supplement of paper PMC4166925
± gives the standard deviation of the averaged measurements. Whole data set: some 33,000 sequences, median “E-score (dimensionless, -0.5 to 0.5)” near -0.049, cut for the highest 2% near 0.37. The list shows a part of the results.

Tested on: T1, PmTbr T-box DNA-binding domain (GST fusion)
T1 sequence: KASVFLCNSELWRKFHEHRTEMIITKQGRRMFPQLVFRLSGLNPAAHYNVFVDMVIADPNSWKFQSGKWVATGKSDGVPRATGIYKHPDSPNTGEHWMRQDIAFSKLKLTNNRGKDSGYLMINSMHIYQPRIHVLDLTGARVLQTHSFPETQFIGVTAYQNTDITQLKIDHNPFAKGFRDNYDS
Assay: PBM E-score of 8-mer (E-score (dimensionless, -0.5 to 0.5)); Tbr is Tbrain of the sea star Patiria miniata (Pm) or the sea urchin Strongylocentrotus purpuratus (Sp); higher = stronger binding preference; most listed sequences are background and not binding sites
Details: the construct has about 5 more residues each side
Outline: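 Using the Universal PBM Analysis Suite, every ungapped 8-mer received an enrichment E-score averaged over duplicate arrays. Probe intensities came from double-stranded Universal Agilent oligonucleotide arrays incubated with 200 nM GST-fused Tbr T-box DNA-binding domain in PBS (pH 7.5). That protein was expressed in BL21 E. coli at 20 °C and purified by glutathione affinity chromatography.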

In order of rising “PBM E-score of 8-mer” value:
1. AGGGGGGA  -0.405 ± 0.04
2. CGTGGGCC  -0.33 ± 0.015
3. CGTAGCCC  -0.296 ± 0.01
4. CATACTTC  -0.286 ± 0.058
5. TATGCTGA  -0.28082 ± 7.1e-05
6. ATTAGGGA  -0.279 ± 0.0072
7. TCGTTCAA  -0.248 ± 0.022
8. ACCATACC  -0.237 ± 0.015
9. CAACCCTC  -0.236 ± 0.019
10. CTGATGTC  -0.235 ± 0.048
11. AGCTCCGC  -0.233 ± 0.015
12. CCAGCGGG  -0.226 ± 0.066
13. ATGAACCA  -0.22 ± 0.029
14. AGAGGCAC  -0.218 ± 0.027
15. CCGGTTCC  -0.214 ± 0.067
16. GGATCTTA  -0.21 ± 0.034
17. ATCGATTA  -0.208 ± 0.05
18. AGACTCGG  -0.204 ± 0.034
19. ACGGTAGT  -0.189 ± 0.027
20. ATATGTAG  -0.183 ± 0.12
21. CCCGGCTA  -0.176 ± 0.046
22. AATATCTG  -0.17 ± 0.062
23. TTCTTCAA  -0.17 ± 0.034
24. AGGGTACA  -0.168 ± 0.054
25. ATCTTGAA  -0.166 ± 0.038
26. CGTCTTAA  -0.164 ± 0.11
27. CGAAGACG  -0.158 ± 0.047
28. TAAGATAA  -0.152 ± 0.069
29. AGTTTTCC  -0.151 ± 0.047
30. CTGAGCTA  -0.151 ± 0.13
31. ACTGGCCT  -0.15 ± 0.025
32. CCCTAACC  -0.149 ± 0.022
33. CTTCCTTC  -0.145 ± 0.048
34. AGAAAGAT  -0.145 ± 0.0054
35. CATGAATG  -0.144 ± 0.055
36. AACGGCGA  -0.141 ± 0.023
37. GCTTGGCA  -0.141 ± 0.012
38. CAGAGTAG  -0.139 ± 0.047
39. ATGCAGAA  -0.138 ± 0.029
40. TAAATATA  -0.132 ± 0.034
41. CGGACAAA  -0.131 ± 0.0074
42. AAAACGGC  -0.13 ± 0.055
43. ACGAGGAG  -0.129 ± 0.0062
44. ACTCCTAC  -0.129 ± 0.017
45. AAACGCTG  -0.126 ± 0.034
46. CTTTTACC  -0.123 ± 0.076
47. GCAGTGCA  -0.123 ± 0.041
48. CCCAGAGA  -0.12 ± 0.088
49. GAATCCCA  -0.117 ± 0.017
50. ATGACATG  -0.116 ± 0.051
51. ACGTATCT  -0.115 ± 0.011
52. AGTCGGTC  -0.113 ± 0.051
53. GTTTATGA  -0.11 ± 0.083
54. CGGAGTCA  -0.105 ± 0.039
55. GCTGGCTA  -0.105 ± 0.025
56. ACGGCTGG  -0.102 ± 0.11
57. AGCTTCTC  -0.0998 ± 0.023
58. CCCTACGA  -0.0988 ± 0.015
59. CTATGCTC  -0.0975 ± 0.035
60. AATCAGCC  -0.0972 ± 0.019
61. CGCAGGAG  -0.0946 ± 0.095
62. CAACATTA  -0.0938 ± 0.068
63. AGAAGCTG  -0.0905 ± 0.062
64. GCATAAGC  -0.0896 ± 0.04
65. ACTGAACC  -0.0894 ± 0.13
66. ACCACTCT  -0.0871 ± 0.0037
67. GCAGTAAA  -0.0863 ± 0.0081
68. TCCAAACA  -0.0847 ± 0.0077
69. CGGAACAA  -0.0846 ± 0.066
70. AGCATTCG  -0.0845 ± 0.034
71. AGCTTAAC  -0.0796 ± 0.062
72. AATGTTAC  -0.0757 ± 0.051
73. AGCAAAAT  -0.0655 ± 0.029
74. AGTAGAAC  -0.0647 ± 0.049
75. CTTCGAGA  -0.0635 ± 0.0043
76. CCAATGCC  -0.0626 ± 0.014
77. CACTGGGA  -0.0625 ± 0.026
78. TTAGAAAA  -0.0605 ± 0.08
79. CAGGGCCG  -0.0604 ± 0.0011
80. ACCACGGA  -0.0578 ± 0.054
81. CGGTACAC  -0.0545 ± 0.01
82. AACAATTC  -0.054 ± 0.025
83. TGCGGCAA  -0.0539 ± 0.0016
84. AGGATGCC  -0.0503 ± 0.089
85. CCTAGGGC  -0.0447 ± 0.054
86. AATAGGGG  -0.0444 ± 0.013
87. CGAGCCCG  -0.0416 ± 0.057
88. TAGTTCCA  -0.0365 ± 0.003
89. AGGTTTAG  -0.0333 ± 0.0097
90. ACAGATTA  -0.0308 ± 0.028
91. CAGGTCTC  -0.0284 ± 0.0014
92. ATACCAAG  -0.0242 ± 0.076
93. AATATACC  -0.0185 ± 0.032
94. GAACTTAC  -0.0179 ± 0.009
95. ATCATAAC  -0.017 ± 0.035
96. CGCTGATA  -0.0144 ± 0.019
97. GACTGATA  -0.014 ± 0.016
98. ATATCATG  -0.0112 ± 0.014
99. CGGTCTTA  -0.0111 ± 0.035
100. CCGTGGAA  -0.00916 ± 0.053
101. CCAGTAGA  -0.00801 ± 0.084
102. AAAAGTTT  0.00113 ± 0.079
103. CTCTGGCA  0.00132 ± 0.054
104. ACAGGCGG  0.00416 ± 0.0023
105. TAACTGAA  0.005 ± 0.045
106. GTCAGCTA  0.00582 ± 0.052
107. GACAGTCC  0.0238 ± 0.018
108. CAGTATCA  0.0243 ± 0.028
109. AACGTTGT  0.0244 ± 0.055
110. CCTTCTAA  0.0249 ± 0.0094
111. ATTGCTGC  0.0271 ± 0.024
112. CCTACTAA  0.0287 ± 0.034
113. CCTAGTCA  0.0299 ± 0.046
114. TATCCCGA  0.0324 ± 0.026
115. CCTGGCAG  0.0327 ± 0.026
116. ATTATTAC  0.0344 ± 0.013
117. GGGCATCA  0.0391 ± 0.0038
118. ATGTGCAG  0.0401 ± 0.038
119. ATTCTTCA  0.0402 ± 0.067
120. CTATTAAA  0.0421 ± 0.049
121. CTAGAAGC  0.044 ± 0.043
122. ACAGGGTC  0.0451 ± 0.0068
123. CGCTTTTC  0.0493 ± 0.07
124. AACAAGAC  0.05 ± 0.017
125. ATTTAACG  0.0554 ± 0.091
126. CGACCTCA  0.0582 ± 0.012
127. AGGTACGG  0.0668 ± 0.048
128. GCACTACA  0.0737 ± 0.1
129. CTGCCCAC  0.0747 ± 0.074
130. ATTGTCCA  0.075 ± 0.02
131. GTCAAAAA  0.0926 ± 0.056
132. CACACAAA  0.0927 ± 0.064
133. GTATGGCA  0.0931 ± 0.062
134. CACTTGTA  0.0949 ± 0.008
135. GTGCGCGA  0.102 ± 0.013
136. ATCTTAAC  0.105 ± 0.045
137. ACCTTAGA  0.106 ± 0.035
138. CGCGCGGC  0.107 ± 0.035
139. AAGTGGGC  0.108 ± 0.026
140. CAAAAAGC  0.111 ± 0.062
141. ATGCCACG  0.114 ± 0.025
142. GTAACCAC  0.115 ± 0.0041
143. ACGTCGAC  0.115 ± 0.035
144. AGTATAAC  0.119 ± 0.067
145. ATCAGCAT  0.122 ± 0.0034
146. ACTTATCG  0.138 ± 0.029
147. ATACCTGG  0.139 ± 0.025
148. GACAAGAC  0.139 ± 0.036
149. ATTAACAG  0.143 ± 0.048
150. AATTAGTG  0.144 ± 0.0053
151. CTGGACGA  0.151 ± 0.016
152. CGAATACA  0.155 ± 0.015
153. ACGACAAG  0.175 ± 0.028
154. CTGTTGTC  0.176 ± 0.015
155. CAGTGAGA  0.181 ± 0.028
156. AATGGTGC  0.193 ± 0.034
157. AAAACACG  0.196 ± 0.033
158. ATATTGTG  0.196 ± 0.028
159. CAGTTCAC  0.226 ± 0.023
160. CGATGTGA  0.228 ± 0.018
161. GCCCACAC  0.228 ± 0.089
162. CACATACC  0.242 ± 0.0046
163. GGTTAACA  0.255 ± 0.026
164. ACTTTTCG  0.264 ± 0.018
165. ACTAACGC  0.273 ± 0.012
166. GTCACGAA  0.273 ± 0.028
167. CATGTGTC  0.309 ± 0.03
168. GGTGGCGA  0.351 ± 0.0076
169. CCTGGCAC  0.371 ± 0.019
170. TGCGAGAA  0.3906 ± 0.0012
171. AAAGTGAC  0.392 ± 0.012
172. AAGGTGTC  0.4879 ± 0.0035
